Results reported in PMC10167348, “Structural mechanisms of TRPM7 activation and inhibition” (Nature Communications, 2023).
“And” between values parts separate entries of the source, which are not always exact repeats. Equal values may be shown once. This continues a long series; more values of the same kind are listed elsewhere.

Key:
Assay in all cases: Aequorin-based Ca2+ influx assay, activation by naltriben
Type in all cases: cell-based
Details in all cases: replicate values
[1] = biological target: T1, TRPM7-L671A/N752K (Mus musculus, UniProt Q923J1, L671A/N752K)
T1 construct: expressed in transfected cells; host or cells: HEK 293T
Procedure: (§1) Measurements of [Ca^2+]i were performed as reported previously with several modifications[2],[52],[54]. HEK 293T cells (mycoplasma test negative, ATCC #CRL3216) were maintained at 37 °C and 5% CO2 in DMEM supplemented with 10% fetal calf serum, 100 µg/ml streptomycin and 100 U/ml penicillin (all from Thermo Fisher Scientific). Cells cultured in six-well plates (~60% confluence) were transfected with 2 µg/dish Trpm7 plasmid DNA and 0.1 µg/dish pG5A plasmid DNA encoding eGFP fused to Aequorea victoria aequorin, using Lipofectamine 2000 (Thermo Fisher Scientific). Twenty-four hours after transfection, the cells were washed with Mg^2+-free HEPES-buffered saline (Mg^2+-free HBS) containing 140 mM NaCl, 6 mM KCl, 0.5 mM CaCl2, 10 mM HEPES (pH 7.4) and 5 mM glucose, and mechanically resuspended in the Mg^2+-free HBS. For reconstitution of aequorin, cell suspensions were incubated with 5 µM coelenterazine (Biaffin GmbH) in the Mg^2+-free HBS for 30 min at room temperature. Cells were washed twice by centrifugation at 600 rpm for 5 min (Heraeus Pico 17 microcentrifuge, Thermo Fisher Scientific), resuspended in the Mg^2+-free HBS and aliquoted into 96-well plates (1 × 10^5 cells per well). Luminescence was detected at room temperature using a FLUOstar OPTIMA microplate reader (BMG LABTECH GmbH). To monitor the NS8593- and VER155008-induced inhibition of TRPM7-mediated Ca^2+ influx, the extracellular concentration of Ca^2+ was increased to 5 mM by injecting the CaCl2-containing Mg^2+-free HBS in the absence or presence of the inhibitors. […] To study activation by naltriben, TRPM7-transfected cells were exposed to Mg^2+-free HBS containing different concentrations of the agonist. The experiments were terminated by lysing cells with 0.1% (v/v) Triton X-100 in the Mg^2+-free HBS to record the total bioluminescence. The bioluminescence rates (counts/s) were analyzed at 1-s intervals and calibrated as [Ca^2+]i values using the following equation:1 p[Ca^2+]i=0.332588(−log(k))+5.5593 where k represents the rate of aequorin consumption, i.e., counts/s divided by the total number of counts.
(§2) To determine the IC50 values for NS8593 and VER155008 (EC50 for naltriben), the data were fitted with the following logistic equation:2 Ec=Emin+Emax+Emin/1+c^h/IC50^h where E(c) is the functional effect at the concentration c of the compound, Emin is the minimal effect, Emax is the maximal effect, IC50 (EC50) is the concentration of the compound that produces the half-maximal effect, and h is the Hill coefficient. Fitting of dose-response curves was performed using GraphPad Prism 8.4.0. Data are presented as the mean ± SEM.

[2] = biological target: T2, TRPM7 WT (Mus musculus, UniProt Q923J1)
T2 construct: expressed in transfected cells; host or cells: HEK 293T
Procedure: as §1, §2

[3] = biological target: T3, TRPM7-S744A (Mus musculus, UniProt Q923J1, S744A)
T3 construct: expressed in transfected cells; host or cells: HEK 293T
Procedure: as §1, §2

[4] = biological target: T4, TRPM7-L671A (Mus musculus, UniProt Q923J1, L671A)
T4 construct: expressed in transfected cells; host or cells: HEK 293T
Procedure: as §1, §2

[5] = biological target: T5, TRPM7-N752K (Mus musculus, UniProt Q923J1, N752K)
T5 construct: expressed in transfected cells; host or cells: HEK 293T
Procedure: as §1, §2

T5 sequence (Q923J1 whole entry N752K): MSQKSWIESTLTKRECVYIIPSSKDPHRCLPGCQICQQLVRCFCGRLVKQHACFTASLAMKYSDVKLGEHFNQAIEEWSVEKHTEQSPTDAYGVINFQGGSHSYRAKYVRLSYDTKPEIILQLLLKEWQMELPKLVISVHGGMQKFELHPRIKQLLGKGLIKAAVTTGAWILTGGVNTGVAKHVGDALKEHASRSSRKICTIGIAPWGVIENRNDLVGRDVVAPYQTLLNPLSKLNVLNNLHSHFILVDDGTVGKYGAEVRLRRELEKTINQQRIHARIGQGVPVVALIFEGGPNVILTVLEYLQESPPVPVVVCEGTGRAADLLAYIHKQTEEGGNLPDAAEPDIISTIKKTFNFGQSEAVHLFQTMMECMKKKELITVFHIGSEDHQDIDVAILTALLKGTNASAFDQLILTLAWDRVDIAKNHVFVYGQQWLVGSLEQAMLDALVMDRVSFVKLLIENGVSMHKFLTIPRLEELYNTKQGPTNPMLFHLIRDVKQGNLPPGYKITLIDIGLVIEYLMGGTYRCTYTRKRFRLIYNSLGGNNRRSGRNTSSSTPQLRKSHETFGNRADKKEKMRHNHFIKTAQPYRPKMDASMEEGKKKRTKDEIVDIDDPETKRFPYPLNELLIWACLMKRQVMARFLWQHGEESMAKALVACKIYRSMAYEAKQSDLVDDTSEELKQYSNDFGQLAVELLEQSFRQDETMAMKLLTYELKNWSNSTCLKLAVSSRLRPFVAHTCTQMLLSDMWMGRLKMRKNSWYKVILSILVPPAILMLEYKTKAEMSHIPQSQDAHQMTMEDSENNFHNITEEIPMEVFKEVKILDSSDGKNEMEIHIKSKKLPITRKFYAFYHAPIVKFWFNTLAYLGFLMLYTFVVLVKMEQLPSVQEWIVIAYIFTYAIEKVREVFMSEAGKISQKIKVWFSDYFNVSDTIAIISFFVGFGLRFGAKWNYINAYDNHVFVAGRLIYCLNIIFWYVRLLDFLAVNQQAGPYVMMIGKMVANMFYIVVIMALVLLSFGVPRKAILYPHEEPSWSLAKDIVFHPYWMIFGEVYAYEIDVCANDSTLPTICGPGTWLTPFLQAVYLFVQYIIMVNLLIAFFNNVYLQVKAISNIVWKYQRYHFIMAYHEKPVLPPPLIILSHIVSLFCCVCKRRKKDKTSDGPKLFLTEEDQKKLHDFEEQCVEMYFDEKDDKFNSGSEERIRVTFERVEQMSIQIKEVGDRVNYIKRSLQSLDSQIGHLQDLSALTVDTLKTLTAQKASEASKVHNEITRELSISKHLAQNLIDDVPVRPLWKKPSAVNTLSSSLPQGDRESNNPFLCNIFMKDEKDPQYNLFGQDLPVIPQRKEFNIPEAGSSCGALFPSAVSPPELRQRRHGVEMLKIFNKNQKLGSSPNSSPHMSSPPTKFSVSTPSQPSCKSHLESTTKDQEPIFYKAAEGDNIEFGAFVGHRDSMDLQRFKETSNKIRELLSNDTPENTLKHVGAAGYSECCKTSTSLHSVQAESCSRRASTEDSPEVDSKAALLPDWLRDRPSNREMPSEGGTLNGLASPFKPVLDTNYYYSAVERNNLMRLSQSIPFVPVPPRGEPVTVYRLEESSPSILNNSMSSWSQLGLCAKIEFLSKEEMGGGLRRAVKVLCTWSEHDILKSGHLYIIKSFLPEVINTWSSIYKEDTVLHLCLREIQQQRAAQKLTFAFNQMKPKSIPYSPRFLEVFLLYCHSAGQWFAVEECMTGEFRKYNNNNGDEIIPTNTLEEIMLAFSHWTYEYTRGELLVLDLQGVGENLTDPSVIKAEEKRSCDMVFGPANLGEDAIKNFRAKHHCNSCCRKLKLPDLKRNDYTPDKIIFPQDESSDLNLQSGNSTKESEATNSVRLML
T3 sequence (Q923J1 whole entry S744A): as the sequence (Q923J1 whole entry N752K) above, with S744A, K752N counted along it
T1 sequence (Q923J1 whole entry L671A/N752K): as the sequence (Q923J1 whole entry N752K) above, with L671A counted along it
T4 sequence (Q923J1 whole entry L671A): as the sequence (Q923J1 whole entry N752K) above, with L671A, K752N counted along it
T2 sequence (Q923J1 whole entry): as the sequence (Q923J1 whole entry N752K) above, with K752N counted along it

Oc1ccc2c3c1O[C@H]1c4oc5ccccc5c4C[C@@]4(O)[C@@H](C2)N(CC2CC2)CC[C@]314 [Naltriben, naltriben]
TRPM7 activation, fold ([1]; [Naltriben] 10 µM): 1.45 fold and 1.00 fold (2×) and 1.20 fold
TRPM7 activation, fold ([1]; [Naltriben] 20 µM): 1.02 fold and 0.91 fold and 0.89 fold and 0.95 fold
TRPM7 activation, fold ([1]; [Naltriben] 30 µM): 1.09 fold and 0.89 fold and 0.92 fold and 0.98 fold
TRPM7 activation, fold ([1]; [Naltriben] 40 µM): 1.10 fold and 0.85 fold and 0.92 fold and 0.96 fold
TRPM7 activation, fold ([1]; [Naltriben] 50 µM): 1.13 fold and 0.91 fold and 0.96 fold and 1.00 fold
TRPM7 activation, fold ([1]; [Naltriben] 100 µM): 1.32 fold and 1.04 fold (2×) and 1.13 fold
TRPM7 activation, fold ([1]; [Naltriben] 200 µM): 1.89 fold and 1.31 fold and 1.45 fold and 1.35 fold
TRPM7 activation, fold ([1]; [Naltriben] 300 µM): 2.47 fold and 1.57 fold and 1.69 fold and 1.74 fold
TRPM7 activation, fold ([1]; [Naltriben] 400 µM): 2.54 fold and 1.61 fold and 1.91 fold and 1.97 fold
TRPM7 activation, fold ([1]; [Naltriben] 500 µM): 2.66 fold and 1.73 fold and 2.02 fold and 2.17 fold
TRPM7 activation, fold ([2]; [Naltriben] 10 µM): 1.19 fold and 1.14 fold and 1.17 fold and 1.15 fold and 1.31 fold and 1.41 fold
TRPM7 activation, fold ([2]; [Naltriben] 20 µM): 1.77 fold and 1.35 fold and 1.40 fold and 1.23 fold and 1.98 fold and 2.06 fold
TRPM7 activation, fold ([2]; [Naltriben] 30 µM): 1.96 fold and 1.81 fold and 1.78 fold and 1.93 fold and 2.40 fold and 2.35 fold
TRPM7 activation, fold ([2]; [Naltriben] 40 µM): 2.43 fold and 1.86 fold and 1.85 fold and 1.83 fold and 2.64 fold and 2.80 fold
TRPM7 activation, fold ([2]; [Naltriben] 50 µM): 2.78 fold and 2.42 fold and 2.07 fold and 2.38 fold and 2.47 fold and 2.97 fold
TRPM7 activation, fold ([3]; [Naltriben] 10 µM): 1.12 fold and 1.19 fold and 1.07 fold and 1.01 fold
TRPM7 activation, fold ([3]; [Naltriben] 20 µM): 1.20 fold and 1.38 fold and 1.17 fold and 1.13 fold
TRPM7 activation, fold ([3]; [Naltriben] 30 µM): 1.46 fold and 1.58 fold and 1.40 fold and 1.28 fold
TRPM7 activation, fold ([3]; [Naltriben] 40 µM): 1.64 fold and 1.74 fold and 1.55 fold and 1.62 fold
TRPM7 activation, fold ([3]; [Naltriben] 50 µM): 1.84 fold and 1.89 fold and 1.78 fold and 1.66 fold
TRPM7 activation, fold ([3]; [Naltriben] 100 µM): 2.28 fold and 2.37 fold and 2.20 fold and 1.98 fold
TRPM7 activation, fold ([3]; [Naltriben] 200 µM): 2.80 fold and 2.90 fold and 2.64 fold and 2.45 fold
TRPM7 activation, fold ([3]; [Naltriben] 300 µM): 2.94 fold and 3.21 fold and 2.75 fold and 2.67 fold
TRPM7 activation, fold ([3]; [Naltriben] 400 µM): 2.98 fold and 3.28 fold and 2.68 fold and 2.87 fold
TRPM7 activation, fold ([3]; [Naltriben] 500 µM): 2.34 fold and 3.39 fold and 2.98 fold and 2.81 fold
TRPM7 activation, fold ([4]; [Naltriben] 10 µM): 0.98 fold and 0.86 fold and 0.97 fold
TRPM7 activation, fold ([4]; [Naltriben] 20 µM): 1.00 fold and 0.86 fold and 1.08 fold
TRPM7 activation, fold ([4]; [Naltriben] 30 µM): 1.12 fold and 0.94 fold and 1.03 fold
TRPM7 activation, fold ([4]; [Naltriben] 40 µM): 1.09 fold and 1.06 fold and 1.04 fold
TRPM7 activation, fold ([4]; [Naltriben] 50 µM): 1.24 fold and 1.17 fold and 1.14 fold
TRPM7 activation, fold ([4]; [Naltriben] 100 µM): 1.77 fold and 1.84 fold and 1.54 fold
TRPM7 activation, fold ([4]; [Naltriben] 200 µM): 2.16 fold and 2.06 fold and 1.99 fold
TRPM7 activation, fold ([4]; [Naltriben] 300 µM): 2.55 fold and 2.39 fold and 2.20 fold
TRPM7 activation, fold ([4]; [Naltriben] 400 µM): 2.94 fold and 2.31 fold and 2.40 fold
TRPM7 activation, fold ([4]; [Naltriben] 500 µM): 2.80 fold and 2.64 fold and 2.55 fold
TRPM7 activation, fold ([5]; [Naltriben] 10 µM): 0.98 fold and 0.99 fold (2×)
TRPM7 activation, fold ([5]; [Naltriben] 20 µM): 1.10 fold and 1.05 fold and 1.04 fold
TRPM7 activation, fold ([5]; [Naltriben] 30 µM): 1.15 fold and 1.11 fold and 1.00 fold
TRPM7 activation, fold ([5]; [Naltriben] 40 µM): 1.20 fold and 1.14 fold and 1.27 fold
TRPM7 activation, fold ([5]; [Naltriben] 50 µM): 1.30 fold and 1.08 fold and 1.41 fold
TRPM7 activation, fold ([5]; [Naltriben] 100 µM): 1.63 fold and 1.42 fold and 1.62 fold
TRPM7 activation, fold ([5]; [Naltriben] 200 µM): 2.39 fold and 2.25 fold and 2.30 fold
TRPM7 activation, fold ([5]; [Naltriben] 300 µM): 3.09 fold and 2.81 fold and 2.86 fold
TRPM7 activation, fold ([5]; [Naltriben] 400 µM): 3.30 fold and 2.98 fold and 2.99 fold
TRPM7 activation, fold ([5]; [Naltriben] 500 µM): 3.34 fold and 3.09 fold and 3.18 fold
